Results: PubChem BioAssay AID1671194 (National Center for Advancing Translational Sciences (NCATS), 2021)
Screen size: about 140,000 compounds; about 240 (0.17%) were called active. This list was built around the results that the source calls inconclusive (neither active nor inactive); the mix of calls is not that of the screen. The call rests on the fitted dose curve; in most records, active means well fitted inhibition curve with a large enough effect; inconclusive means small, poorly fitted or top-dose-only effect; inactive means no such curve, though single readings can be large or run the other way. Potencies beside an inconclusive call are fits to weak or partial responses and may not hold up.

Assay: Primary qHTS assay for inhibitors of alpha-synuclein gene (SNCA) expression; further: nearly all actives have a fitted effect of over 45% in size;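 on activity change, negative = inhibition: plate controls were DMSO cells for no effect and cell-free wells for full effect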
Settings: HEK-293 SNCA-luciferase knock-in, luminescence, 24 h; activity change, negative = inhibition: at 57.2 µM (top of the series) unless noted
Potency means the concentration at half of the fitted maximal effect; tags describe the fitted curve by direction and shape.

Compound | Potency | activity change, negative = inhibition
CCCCN(CC)CCCNC(=O)Cn1ncc2c3ccccc3n(Cc3ccccc3F)c2c1=O | inconclusive: 39.8 µM [inhibitor, single point] | 
O=C(N[C@H]1CO[C@H]2[C@@H]1OC[C@@H]2Nc1nccc(-c2cccs2)n1)c1ccc(C(F)(F)F)cc1 | inconclusive: 2.82 µM [inhibitor, full curve] | 
CC1CCN(C(=O)CC(c2ccc(Cl)cc2)c2cn(C)c3ccccc23)CC1 (configuration not stated) |  | inactive: -23.4%
Cc1ccc(CN2CCNC(=O)C2CC(=O)N(CC(C)C)CC(C)C)cc1 (configuration not stated) | inconclusive: 10 µM [inhibitor, partial curve, poor fit] | 
CC(C)(C(=O)NCc1ccccn1)C1CCOCC1 | inconclusive: 17.8 µM [inhibitor, single point] | 
CC(C)(Oc1nn(Cc2cccc(Cl)c2)c2ccccc12)C(=O)NCc1cnccn1 |  | inactive: -5.17% [at 87.6 µM]
CCC(Sc1nnc(C)n2c1cc1sccc12)C(=O)Nc1ccccc1F (configuration not stated) | inconclusive: 39.8 µM [inhibitor, single point] | 
CCOc1cccc(C2c3[nH]c4ccccc4c3CCN2C(=O)c2ccccc2F)c1 (configuration not stated) | inconclusive: 15.8 µM [inhibitor, partial curve, poor fit] | 
O=C(Cn1c(=O)n(Cc2ccc(Cl)cc2)c(=O)c2cccnc21)Nc1ccccc1C(F)(F)F | inconclusive: 3.16 µM [inhibitor, single point] | 
O=c1c2nc(-c3cccc(O)c3)ccc2ncn1-c1ccccc1 |  | inactive: 15.2% [at 87.6 µM]
Cc1nn2c(c1-c1ccccc1OCc1ccccc1)N(Cc1ccc(C(=O)O)s1)CCC2 | active: 11.2 µM | 
O=C(NCc1ccccc1)c1cnc2n1CCN(Cc1ccccc1O)CC2 |  | inactive: 10.5% [at 87.6 µM]
CCC1CN(C(=O)NCc2ccc(C)cc2)c2cc(Cl)ccc2O1 (configuration not stated) | inconclusive: 28.2 µM [inhibitor, single point] | 
Cn1nc(C2CC2)cc1NC(=O)c1ccccc1Cl |  | inactive: 81.6% [at 87.6 µM]
Cc1cc(C)cc(NC(=O)Cn2cc(S(=O)(=O)NC(C)(C)C)c(S(=O)(=O)NC(C)(C)C)c2)c1 | inconclusive: 20 µM [inhibitor, partial curve, poor fit] | 
COc1ccc(C(=O)N2CCc3[nH]nc(C(=O)NCCCc4ccccc4)c3C2)cc1 | inconclusive: 6.31 µM [inhibitor, full curve, poor fit] | 
CC1(CNc2ccccc2)COc2ccc(C(=O)NCc3cccc(F)c3)cc2N1 (configuration not stated) | inconclusive: 15.8 µM [inhibitor, partial curve, poor fit] | 
COc1ccccc1NC(=O)Cn1c(SCC(=O)N(C)c2ccccc2)nc2ccccc21 | inconclusive: 1.78 µM [inhibitor, full curve, poor fit] | 
O=C1N(Cc2ccccc2)c2ccc(Cl)cc2C1(O)c1c[nH]c2ccccc12 (configuration not stated) | inconclusive: 39.8 µM [inhibitor, single point] | 
CCc1ccc(C(=O)c2cn(CC(=O)NC3CCCCC3)c3nc(C)ccc3c2=O)cc1 | inconclusive: 12.6 µM [inhibitor, partial curve, poor fit] | 
CCc1nc2c(c(-c3ccc(Cl)cc3)n1)CN(Cc1ccsc1)CC2 |  | inactive: -12%

Compound | Potency | activity change, negative = inhibition
COc1ccc(-c2cc(C(F)(F)F)nc(S(C)(=O)=O)n2)cc1 | inconclusive: 31.6 µM [inhibitor, single point] | 
COc1ccc2c(c1)C=C(CN1CCC(CO)(Cc3ccccc3Cl)CC1)CO2 | inconclusive: 3.16 µM [inhibitor, single point] | 
CN1CCNc2nc(COc3ccccc3OC(F)(F)F)n(Cc3ccccc3)c2C1=O |  | inactive: 9.42%
Cc1nnc(N2CCN(C(=O)NC(C)C)CC2)c2nn(-c3ccccc3)c(C)c12 | inconclusive: 28.2 µM [inhibitor, single point] | 
COCCN1CCOC[C@H]2CCN(C(=O)c3ccco3)C[C@H]21 | inconclusive: 12.6 µM [inhibitor, partial curve, poor fit] | 
Cn1cc(C2=C(c3ccc(Cl)cc3Cl)C(=O)NC2=O)c2ccccc21 | inconclusive: 5.01 µM [inhibitor, full curve, poor fit] | 
COc1ccc(-c2cc(C(F)(F)F)nc(SCCC(=O)Nc3ccccc3F)n2)cc1 | inconclusive: 2.24 µM [inhibitor, full curve, poor fit] | 
Cc1cc(C(=O)N2C[C@@H](CO)[C@H](c3ccccn3)C2)ccn1 | inconclusive: 2.82 µM [inhibitor, full curve] | 
Cc1ccccc1S(=O)(=O)N1CCCC(CCC(=O)NC2CCCCCC2)C1 (configuration not stated) | inconclusive: 5.62 µM [inhibitor, partial curve] | 
O=C(Cn1ncn2nc(-c3cccs3)cc2c1=O)NCc1ccccc1Cl | inconclusive: 39.8 µM [inhibitor, single point] | 
COc1ccc(CNC(=O)C2CCCN(c3nccc(Nc4ccc(OC)cc4)n3)C2)cc1 (configuration not stated) | inconclusive: 39.8 µM [inhibitor, single point] | 
Cc1ccc(C(=O)N2CCC(Cc3nc(C(C)C)no3)CC2)cc1C | inconclusive: 31.6 µM [inhibitor, single point] | 
CSCCCN1CCC2(CCN(Cc3cccc(O)c3)CC2)C(CO)C1 (configuration not stated) | inconclusive: 17.8 µM [inhibitor, single point] | 
COc1ccc(C(=O)NC2CCN(C(=O)N3CC4CC(C3)[C@H]3CCCC(=O)N3C4)CC2)cn1 (some centres not stated) | inconclusive: 39.8 µM [inhibitor, single point] | 
COCc1cn(C[C@H]2C[C@@H](NC(C)=O)[C@H](O)[C@@H]2O)nn1 |  | inactive: -8.63% [at 87.6 µM]
Cc1cc(C)cc(NC(=O)N2CCC(CN3CCc4ccccc4C3)CC2)c1 | inconclusive: 7.08 µM [inhibitor, single point] | 
COc1cccc(NC(=O)c2ccc3c(c2)NC(C)(CNc2ccccc2)CO3)c1 (configuration not stated) | inconclusive: 56.2 µM [inhibitor, single point] | 
CC1CCCN(S(=O)(=O)c2ccc(N3CCCCS3(=O)=O)cc2)C1 (configuration not stated) | inconclusive: 10 µM [inhibitor, partial curve, poor fit] | 
Cc1ccc(C)c(N2C(=O)N(C)c3ccccc3S2(=O)=O)c1 | inconclusive: 3.98 µM [inhibitor, partial curve, poor fit] | 
Cc1cnc(C(=O)N[C@@H]2CCC[C@@H]2C(=O)NCc2ccc(Cl)cc2)cn1 | inconclusive: 3.16 µM [inhibitor, single point] | 
Cc1ccccc1NC(=O)N1CCC(CCNC(=O)C2(c3ccccc3)CC2)CC1 |  | inactive: 1.72%

Compound | Potency | activity change, negative = inhibition
COc1cccc(NC(CNS(=O)(=O)c2ccc(Cl)cc2)c2ccccc2)c1 (configuration not stated) | inconclusive: 2 µM [inhibitor, full curve, poor fit] | 
Cc1nc(CCC(=O)NCc2cc3n(n2)CCCN(C(=O)N(C)C)C3)n[nH]1 | inconclusive: 39.8 µM [inhibitor, single point] | 
Cc1ccc(CNC(=O)c2sc3nc(-c4ccccc4)cn3c2C)cc1 |  | inactive: -5.86%
CN(C)c1ccc2ncc(Nc3ccc(Oc4ccccc4)cc3)n2n1 | inconclusive: 56.2 µM [inhibitor, single point] | 
CCNC(=O)N1CCOc2ccc(CCC(=O)Nc3ccc(C)cc3)cc2C1 | inconclusive: 20 µM [inhibitor, partial curve, poor fit] | 
COc1ccc(-c2ccc3nnc(CNC(=O)COc4ccc(F)cc4)n3n2)cc1 |  | inactive: 1.75%
CC(C)(C)NC(=O)[C@H]1CN(Cc2cccnc2)CCN1C[C@@H](O)C[C@@H](Cc1ccccc1)C(=O)N[C@H]1c2ccccc2C[C@H]1O | inconclusive: 42.9 µM [inhibitor, single point] | 
Cc1cc(C)cc(-n2c(C)nc3cc(C(=O)NCc4ccc(F)cc4)ccc32)c1 | inconclusive: 7.94 µM [inhibitor, partial curve, poor fit] | 
Cc1cccc(-c2nocc2CCC(=O)N2CCN(c3ccccn3)CC2)c1 | inconclusive: 39.8 µM [inhibitor, single point] | 
Cc1cc(N2CCN(c3cccc(C)c3C)CC2)n2nc(C)c(-c3ccc(Cl)cc3)c2n1 | inconclusive: 39.8 µM [inhibitor, single point] | 
COc1cccc(NC(=O)C2CCN(c3nc4ccccc4nc3C(F)(F)F)CC2)c1 | inconclusive: 28.2 µM [inhibitor, single point] | 
Cc1noc(C)c1C(=O)N1CCC2(CC1)CN(C(=O)Nc1cccc(F)c1)C2 | inconclusive: 39.8 µM [inhibitor, single point] | 
COc1ccc(Cl)cc1NC(=O)Cn1cnc2c1c(=O)n(C)c(=O)n2C | inconclusive: 0.891 µM [inhibitor, partial curve, poor fit] | 
c1ccc(CN[C@H]2CO[C@H]3[C@@H]2OC[C@@H]3n2cc(CC3CCCCC3)nn2)cc1 | inconclusive: 56.2 µM [inhibitor, single point] | 
CCN1c2cc(C(=O)Nc3ccc(Cl)cc3)ccc2C(=O)N2CCCCCC21 (configuration not stated) | inconclusive: 39.8 µM [inhibitor, single point] | 
CC(=O)N1CCN(C(=O)C2CCCN2Cc2ccc(-c3cc(C)cc(C)c3)cc2)CC1 (configuration not stated) |  | inactive: 22.3%
CC1CCN(c2ccc(CNC(=O)c3ccc4c(c3)C(O)CCCCCN4C)cc2)CC1 (configuration not stated) |  | inactive: -11.5%
O=Cc1ccccc1-c1cncc(C(=O)O)c1 |  | inactive: -3.42% [at 87.6 µM]
Cc1cn([C@@H]2C[C@@H](O)[C@H](CO)O2)c(=O)[nH]c1=O | inconclusive: 5.41 µM [inhibitor, full curve] | 
Cn1c(=O)n(C)c2cc(N3CCOCC3)c(NC(=O)c3c(F)cccc3F)cc21 | inconclusive: 7.08 µM [inhibitor, single point] | 
